# Assay results as given in PubChem BioAssay AID1956 (SRMLSC, 2009).
# The list shows a part of the results. These are further read-outs of the screen, such as a control signal, another cell line or another target. No call is given for them.
# Assay: compounds boosting herpes simplex virus growth – fold increase, host cell viability (AID 1956); also: tested in PC3 cells
# Conditions: HSV replication augmentation in cells; fold increase: measured here: primary screen fold increase 10 uM, at 10 µM, stronger effect = higher value; viability: measured here: host cell viability series, at 25 µM, stronger effect = lower value
Structure (SMILES),fold increase,viability
O=C(CCCSc1ccccc1)Nc1nc(-c2ccco2)c(-c2ccco2)s1,1.34,95.3%
CC(=O)N1CCN(c2ccc(NCc3ccc4c(c3)OCO4)cc2)CC1,1.33,
CCN(c1ccc(N=Cc2c(O)n(Cc3ccc(OC)cc3)c(=O)c3ccccc23)cc1)C(C)C,7.53,97.3%
CC1CCCCC1NC(=O)CN1CCC(O)(c2ccc(F)cc2)CC1 (centres undefined),1.36,102%
COc1cc(NC(=O)Cc2cccs2)c(C(=O)O)cc1OC,1.54,95.6%
CC1=NN(c2nc(-c3ccccc3)cs2)C(=O)C1,1.83,
O=c1ccc2[n+]([O-])c3ccc(O)cc3oc-2c1,1.38,75%
C/C(=N\NC(=S)Nc1cccc(C)c1)c1ccccc1,1.11,
CCOCCc1nnc(NC(=O)c2cc(OC)c(OC)cc2[N+](=O)[O-])s1,1.34,99.3%
COc1ccc(-n2c(O)c(/C=N/NS(=O)(=O)c3ccc(C)c([N+](=O)[O-])c3)c3ccccc3c2=O)cc1OC,2.6,96.6%
N#CC1=C(N)Oc2c(sc3ccccc23)C1c1ccco1 (centres undefined),1.59,82.4%
FC(F)(F)c1ccc2c(c1)N1CCCC1CN2 (centres undefined),1.34,86.9%
COc1ccc(C(C#N)N2N=C(c3ccccc3)CC2c2ccccc2)cc1OC (centres undefined),1.34,87%
CCN(C(=O)CSc1nc2ccccc2c(=O)n1-c1cccc(C)c1)C1CCS(=O)(=O)C1 (centres undefined),1.72,97.2%
O=C1c2cccc3c(N4CCCCC4)ccc(c23)C(=O)N1c1cccc(O)c1,7.68,81.3%
CCCCn1ccnc1C(=O)c1cccc(S(=O)(=O)N2CC(C)CC(C)C2)c1 (centres undefined),1.33,76.4%
CC1(C)CC(=O)C=C(NCCN2CCN(C(=S)Nc3ccc(F)cc3)CC2)C1,1.42,101%
O=C(C1=NN(c2ccccc2)C2C(=O)N(c3cccc(Cl)c3)C(=O)C12)c1ccccc1 (centres undefined),3.23,102%
COc1cc(/C=C2/CC/C(=C/c3ccc(O)c(OC)c3)C2=O)ccc1O,1.42,44.1%
O=C(O)c1ccc(-n2cncn2)c([N+](=O)[O-])c1,1.43,96.8%
Cc1ccccc1-n1cc(C(=O)c2cc(Cl)ccc2O)cc(C#N)c1=O,1.54,81%

Structure (SMILES),fold increase,viability
O=C(/C=C/c1cccs1)NC(=S)Nc1ccc(C(=O)O)cc1,1.44,96.4%
CCN(CC)C(=O)CSc1nnc2nnc3cc(Cl)ccc3n12,1.38,85.2%
C=CCN(CC=C)C(=S)NCCc1ccc(OC)c(OC)c1,1.4,105%
CCN(C(=O)COC(=O)c1cc2ccccc2cc1O)C1CCS(=O)(=O)C1 (centres undefined),1.32,
CCc1cccc2cc3c(N)c(C(=O)Nc4ccc(S(=O)(=O)N5CCCC5)cc4)sc3nc12,5.92,93.5%
CC1(C)CC(=O)C=C(N2CCCC2)C1,1.34,88.3%
Cc1ccccc1C(=O)Nc1cccc(NC(=S)NC(=O)c2cccs2)c1,1.21,
O=C1c2cccc3c(N4CCCCC4)ccc(c23)C(=O)N1c1ccccc1O,8.29,
O=C(Nc1cccnc1)c1cc(-c2ccco2)on1,1.34,101%
CCc1ccc2nc3sc(C(=O)Nc4nnc(CC)s4)c(N)c3cc2c1,2.71,91.5%
O=C(COC(=O)/C=C/c1cccs1)NC(c1ccccc1)c1ccccc1,1.34,94.5%
C=CCn1c(=O)/c(=C/c2ccc(O)cc2)s/c1=C(/C#N)c1nnc2n1CCCCC2,3.66,
Cc1c(N=C2N=C(NC(=O)c3cccs3)c3ccccc32)c(=O)n(-c2ccccc2)n1C,1.7,71.9%
Cc1ccccc1-n1c(O)c(/C=C/C=Nc2ccccc2)c(=O)[nH]c1=O,3.61,
Cc1cccc(CSc2nnc(-c3cnccn3)n2C)c1,1.35,98.8%
COc1ccccc1NC(=O)C1=C(C)NC(SCC(=O)c2ccccc2)=C(C#N)C1c1ccco1 (centres undefined),1.42,
c1cncc(-c2nc3ccccc3[nH]2)c1,1.27,94.8%
Cc1ccnc(N/C=C(\C#N)c2nc(-c3cccc(Br)c3)cs2)c1,6.75,83.8%
CSc1cccc(NC(=O)c2ccccn2)c1,1.34,96.4%
Cc1ccc(CNc2ccc3c(c2)OCO3)c(C)c1,1.37,
O=C1c2cccc3c([N+](=O)[O-])ccc(c23)C(=O)N1Cc1cccnc1,7.98,2.31%

Structure (SMILES),fold increase,viability
CCOC(=O)c1cc(C(=O)c2ccccc2O)cn2c(=O)c3c(C)c(C)sc3nc12,2.81,87.1%
OCCNc1c2ccccc2nc2c(F)c(F)c(F)c(F)c12,1.65,31.6%
COc1cc(/C=C2/SC(=S)N(c3ccccc3)C2=O)ccc1Oc1nc(N2CCOCC2)nc(N2CCOCC2)n1,1.59,93.8%
Cc1nonc1NC(=O)CSc1nc2c(C)cccc2cc1C#N,2.3,
Nc1ccc(Oc2ccc(F)cc2)nc1,1.92,102%
Cc1cc2cc(CNC(=O)COc3ccccc3)ccc2n1C,1.49,102%
O=C(Nc1ccccc1F)NC1CCN(Cc2nnnn2Cc2ccc(F)cc2)CC1,1.47,108%
N#C/C(=C\c1ccc([N+](=O)[O-])o1)c1nc2ccccc2[nH]1,4.51,53.2%
Clc1ccc(/C=N/NC2=Nc3cccc4cccc2c34)cc1,1.7,88.7%
Cc1cc(C)c(C)c(/C=C(/C#N)C(N)=S)c1C,1.45,100%
O=C(Nc1ccc(O)cc1)c1ccc(C(=O)c2ccccc2)o1,1.33,
Cc1ccc(NC(=O)CSc2nnc(-c3ccncc3)n2N)cc1C,1.38,95.5%
Cc1ccc(-c2noc(-c3ccccc3C(=O)NCc3ccco3)n2)cc1,1.41,102%
CCCn1nnc(NC(=S)NC(=O)/C=C/c2ccco2)n1,1.41,99.1%
O=C(Nc1cccnc1Cl)C1c2ccccc2Oc2ccccc21,1.17,
CCn1c(C)c(C(C)=O)c(N2CCN(c3cccc(Cl)c3)CC2)nc1=S,1.34,
CC(=Nc1cccc(C)c1)c1sc2ccccc2c1O,2.37,87.6%
Oc1ccccc1CNc1nc2ccccc2n1CCN1CCCCC1,1.4,94.9%
Cc1c(N=C2NC(=O)/C(=C/c3cccc([N+](=O)[O-])c3)S2)c(=O)n(-c2ccccc2)n1C,1.32,
COc1ccc(-c2cc(-c3ccco3)[nH]c(=O)c2C#N)cc1OC,1.57,92.7%
